This test addresses T1, SIN1-RBD-PH ( (the printed accession is a …, UniProt Q9BPZ7 266-522)).
T1 construct: SIN1 (MAPKAP1) RBD-PH tandem, aa 266-522; numbers count on isoform 1 (full length); also called SIN1-RBD-PH tandem; MBP-SIN1-RBD-PH
Briefly: fluorescence polarisation; increasing amounts of SIN1 protein titrated to 1 µM mGppNHp-bound GTPase; 21°C; 30 mM Tris/HCl pH 7.5, 150 mM NaCl, 5 mM MgCl2, 3 mM dithiothreitol; quadratic ligand binding equation. To be noted: both partners purified. (In general: Fluorescence polarisation rises when a labelled molecule tumbles more slowly, as on binding a larger partner.)

B1: KRAS4A (natural protein)
chain: not shown
notes: KRAS isoform 4A, full length gene; Loaded with mant-GppNHp for fluorescence polarisation; A farnesylated KRAS4A from insect cells was used only in liposome flotation
With B1, the affinity, expressed as Kd, was 410 µM.

Broadly, the Kd is a measure of binding affinity in units of concentration. A low value points to tighter binding.

These data come from article PMC9583166 (Frontiers in Cell and Developmental Biology, 2022).
